Results from the supplement of paper PMC12217912.
The list shows a part of the results. The full chains were built here from the parent and the listed change. Values near 0.05 are background.

B1: TEV protease; numbered along this chain (parent)
chain: MGESLFKGPRDYNPISSSICHLTNESDGHTTSLYGIGFGPFIITNKHLFRRNNGTLVVQSLHGVFKVKDTTTLQQHLVDGRDMIIIRMPKDFPPFPQKLKFREPQREERICLVTTNFQTKSMSSMVSDTSCTFPSGDGIFWKHWIQTKDGQCGSPLVSTRDGFIVGIHSASNFTNTNNYFTSVPKNFMELLTNQEAQQWVSGWRLNADSVLWGGHKVFMVKPEEPFQPVKEATQL

Variants of: B1
Test: raw area under fraction-flipped curve 0-4 h after induction (AUC4h, not background-subtracted), DNA-recorder readout of cleavage of the substrate (dimensionless); higher = more cleavage of the substrate by the protease variant
Details: temperature: 34 °C; time window: 0-4 h after rhamnose induction
Experimental: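 In vivo DNA recorder in E. coli TOP10(DE3) ΔrhaA at 34 °C. Each TEVp single-site mutant (parent TEVp 0) is paired with a single-site variant of the 7-mer TEVs (canonical ENLYFQ|S). The substrate sits between flexible linkers in a Bxb1-sfGFP-TEVs-SsrA fusion, so cleavage stabilises Bxb1 and speeds flipping of a recombination array, read by NGS. The value is the raw area under the fraction-flipped curve over 0-4 h after rhamnose induction (AUC4h), with ≥20 reads per time point. It is not background-subtracted; inactive controls average about 0.047.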
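Note: Bxb1 expression induced with 0.2% (w/v) L-rhamnose at OD600 near 0.5, cultures sampled hourly, flipped fraction per protease–substrate barcode pair counted by paired-end Illumina sequencing.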

Row | Variant | area with substrate ENLYFAS | area with substrate ENLYFCS | area with substrate ENLYFDS | area with substrate ENLYFES | area with substrate ENLYFFS | area with substrate ENLYFGS | area with substrate ENLYFIS | area with substrate ENLYFKS | area with substrate ENLYFNS | area with substrate ENLYFPS | area with substrate ENLYFRS | area with substrate ENLYFSS | area with substrate ENLYFTS | area with substrate ENLYFWS | area with substrate ENLYFYS | area with substrate ENLYFHS | area with substrate ENLYFMS | area with substrate ENLYFVS | area with substrate ENLYFLS
1 | MGESLFKGPRDYNPISSSICHLTNESDGHTTSLYGIGFGPFIHTNKHLFRRNNGTLVVQSLHGVFKVKDTTTLQQHLVDGRDMIIIRMPKDFPPFPQKLKFREPQREERICLVTTNFQTKSMSSMVSDTSCTFPSGDGIFWKHWIQTKDGQCGSPLVSTRDGFIVGIHSASNFTNTNNYFTSVPKNFMELLTNQEAQQWVSGWRLNADSVLWGGHKVFMVKPEEPFQPVKEATQL [I43H] | 0.0435 | 0.0635 | 0.0521 | 0.0498 | 0.0503 | 0.0438 | 0.0526 | 0.0416 | 0.0536 | 0.0463 | 0.0525 | 0.0373 | 0.0386 | 0.0424 | 0.0481 | – | – | – | –
2 | MGESLFKGPRDYNPISSSICHLTNESDGHTTSLYGIGFGPFIDTNKHLFRRNNGTLVVQSLHGVFKVKDTTTLQQHLVDGRDMIIIRMPKDFPPFPQKLKFREPQREERICLVTTNFQTKSMSSMVSDTSCTFPSGDGIFWKHWIQTKDGQCGSPLVSTRDGFIVGIHSASNFTNTNNYFTSVPKNFMELLTNQEAQQWVSGWRLNADSVLWGGHKVFMVKPEEPFQPVKEATQL [I43D] | 0.0438 | 0.0339 | 0.0464 | 0.0437 | 0.0353 | – | 0.0355 | 0.0401 | 0.0394 | 0.0396 | – | 0.0637 | 0.0328 | 0.0458 | 0.0352 | 0.0407 | 0.0482 | 0.0764 | –
3 | MGESLFKGPRDYNPISSSICHLTNESDGHTTSLYGIGKGPFIITNKHLFRRNNGTLVVQSLHGVFKVKDTTTLQQHLVDGRDMIIIRMPKDFPPFPQKLKFREPQREERICLVTTNFQTKSMSSMVSDTSCTFPSGDGIFWKHWIQTKDGQCGSPLVSTRDGFIVGIHSASNFTNTNNYFTSVPKNFMELLTNQEAQQWVSGWRLNADSVLWGGHKVFMVKPEEPFQPVKEATQL [F38K] | 0.0498 | 0.05 | 0.0348 | 0.053 | 0.0523 | – | 0.0474 | 0.0636 | 0.0511 | 0.0576 | – | – | 0.0283 | 0.0486 | – | 0.0457 | 0.0672 | 0.0501 | –
4 | MGESLFKGPRDYNPISSSICHLTNESDGHTTSLYGIGFGPFVITNKHLFRRNNGTLVVQSLHGVFKVKDTTTLQQHLVDGRDMIIIRMPKDFPPFPQKLKFREPQREERICLVTTNFQTKSMSSMVSDTSCTFPSGDGIFWKHWIQTKDGQCGSPLVSTRDGFIVGIHSASNFTNTNNYFTSVPKNFMELLTNQEAQQWVSGWRLNADSVLWGGHKVFMVKPEEPFQPVKEATQL [I42V] | 0.0746 | – | 0.0599 | 0.0662 | – | – | 0.0565 | – | 0.0628 | 0.0559 | 0.055 | – | 0.0696 | – | – | – | – | – | –
5 | MGESLFKGPRDYNPISSSICHLTNESDGHTTSLYGIGFGPFIIINKHLFRRNNGTLVVQSLHGVFKVKDTTTLQQHLVDGRDMIIIRMPKDFPPFPQKLKFREPQREERICLVTTNFQTKSMSSMVSDTSCTFPSGDGIFWKHWIQTKDGQCGSPLVSTRDGFIVGIHSASNFTNTNNYFTSVPKNFMELLTNQEAQQWVSGWRLNADSVLWGGHKVFMVKPEEPFQPVKEATQL [T44I] | 0.0711 | – | – | 0.0657 | 0.0616 | – | 0.0629 | 0.0641 | – | 0.0498 | 0.0886 | – | 0.0428 | 0.0567 | – | 0.0659 | 0.0565 | – | 0.0313
6 | MGESLFKGPRDYNPISSSICHLTNESDGHTVSLYGIGFGPFIITNKHLFRRNNGTLVVQSLHGVFKVKDTTTLQQHLVDGRDMIIIRMPKDFPPFPQKLKFREPQREERICLVTTNFQTKSMSSMVSDTSCTFPSGDGIFWKHWIQTKDGQCGSPLVSTRDGFIVGIHSASNFTNTNNYFTSVPKNFMELLTNQEAQQWVSGWRLNADSVLWGGHKVFMVKPEEPFQPVKEATQL [T31V] | 0.0529 | – | – | 0.0636 | 0.0448 | – | 0.0595 | 0.0711 | 0.0622 | 0.0643 | 0.0669 | – | 0.0502 | 0.0555 | 0.0501 | 0.0561 | 0.0669 | 0.0617 | –
7 | MGESLFKGPRDYNPISSSICHLTNESDGHTTSLYGIGFGPAIITNKHLFRRNNGTLVVQSLHGVFKVKDTTTLQQHLVDGRDMIIIRMPKDFPPFPQKLKFREPQREERICLVTTNFQTKSMSSMVSDTSCTFPSGDGIFWKHWIQTKDGQCGSPLVSTRDGFIVGIHSASNFTNTNNYFTSVPKNFMELLTNQEAQQWVSGWRLNADSVLWGGHKVFMVKPEEPFQPVKEATQL [F41A] | 0.0451 | 0.0519 | – | 0.0583 | 0.0623 | – | 0.0533 | 0.0427 | 0.0513 | 0.0644 | 0.0314 | – | 0.0618 | 0.0456 | 0.0518 | 0.0491 | 0.0584 | 0.0663 | 0.0376
8 | MGESLFKGPRDYNPISSSICHLTNESDGHTTSLYGIGFGPGIITNKHLFRRNNGTLVVQSLHGVFKVKDTTTLQQHLVDGRDMIIIRMPKDFPPFPQKLKFREPQREERICLVTTNFQTKSMSSMVSDTSCTFPSGDGIFWKHWIQTKDGQCGSPLVSTRDGFIVGIHSASNFTNTNNYFTSVPKNFMELLTNQEAQQWVSGWRLNADSVLWGGHKVFMVKPEEPFQPVKEATQL [F41G] | 0.0407 | 0.0527 | – | 0.0562 | 0.0675 | 0.0396 | 0.0452 | 0.0612 | 0.0451 | 0.0467 | 0.0467 | 0.0469 | 0.046 | 0.0531 | 0.0364 | 0.0407 | 0.0648 | 0.0521 | 0.0569
9 | MGESLFKGPRDYNPISSSICHLTNESDGHTTSLYGIGFGPPIITNKHLFRRNNGTLVVQSLHGVFKVKDTTTLQQHLVDGRDMIIIRMPKDFPPFPQKLKFREPQREERICLVTTNFQTKSMSSMVSDTSCTFPSGDGIFWKHWIQTKDGQCGSPLVSTRDGFIVGIHSASNFTNTNNYFTSVPKNFMELLTNQEAQQWVSGWRLNADSVLWGGHKVFMVKPEEPFQPVKEATQL [F41P] | 0.0443 | 0.0513 | 0.0708 | 0.058 | 0.0692 | – | 0.0447 | 0.059 | 0.0491 | 0.0499 | 0.0576 | 0.0526 | – | 0.0506 | 0.0487 | 0.0415 | 0.0432 | 0.0545 | 0.0551
